From patent US20110020329A1, “CONJUGATES OF ANTI-RG-1 ANTIBODIES” (Bristol-Myers Squibb Company, priority 2007, published 2011)

B1: anti-RG-1: naked human monoclonal anti-RG-1 antibody (19G9; VH SEQ ID NO: 13, VL SEQ ID NO: 15) (antibody, listed as Homo sapiens, V domains shown)
VH: EVQLVQSGGGLVHPGGSLRLSCAGSGFTFSSYVMHWLRQAPGKGLEWVSVIGTGGVTHYADSVKGRFTISRDNAKNSLYLQMNSLRAEDMAMYYCARWGYYGSGSYENDAFDIWGQGTMVTVSS
VL: [… about 100 residues …]
B2: anti-RG-1-Toxin: anti-RG-1 antibody 19G9 conjugated to the molecule of formula (m), formula (A), substitution ratio 1-1.5 (conjugate)
VH: B1 VH
VL: [… about 100 residues …]

Legend:
[1] = tested on: LNCaP xenograft; assay: Efficacy against LNCaP tumors in SCID mice; format: in vivo, CB17.SCID mice; settings: LNCaP model, low RG-1 in stroma; IP single dose Day 0; antibody 30 mg/kg, conjugate 0.03, 0.1, 0.3 μmole/kg cytotoxin; to Day 55
[2] = tested on: LNCaP/prostate stroma cell xenograft; assay: Efficacy against LNCaP/prostate stroma coculture tumors in SCID mice; format: in vivo, CB17.SCID mice; settings: LNCaP/stroma model, high RG-1 in stroma; IP single dose Day 0; antibody 30 mg/kg, conjugate 0.03, 0.1, 0.3 μmole/kg cytotoxin; to Day 62

Molecule	effect on tumor growth (mean increase in tumor volume) [1]	effect on tumor growth (median increase in tumor volume) [2]
B1	no inhibitory effect on tumor growth	no inhibitory effect on tumor growth
B2	similar, but unexpected, anti-tumor activity was observed	
